Test results published in publication PMC10405735.
These are yes or no findings as the source states them, for the method shown. For some of these results: Binding seen in cells or lysates may run through a third protein. Some results given as binding are weak or reduced against the parent protein; the word gives no strength. For some of these results: Where a sequence is shown, tags or fusion partners need not be part of it. Blank lines part the entries; values can stand above or below the substance they belong to.

Chains of the proteins cited; added tags and fusions are not shown. Lines headed by an entry give the natural chain unless they say otherwise; changes in a name come on top. Residues count along the entry.
UniProt O15218: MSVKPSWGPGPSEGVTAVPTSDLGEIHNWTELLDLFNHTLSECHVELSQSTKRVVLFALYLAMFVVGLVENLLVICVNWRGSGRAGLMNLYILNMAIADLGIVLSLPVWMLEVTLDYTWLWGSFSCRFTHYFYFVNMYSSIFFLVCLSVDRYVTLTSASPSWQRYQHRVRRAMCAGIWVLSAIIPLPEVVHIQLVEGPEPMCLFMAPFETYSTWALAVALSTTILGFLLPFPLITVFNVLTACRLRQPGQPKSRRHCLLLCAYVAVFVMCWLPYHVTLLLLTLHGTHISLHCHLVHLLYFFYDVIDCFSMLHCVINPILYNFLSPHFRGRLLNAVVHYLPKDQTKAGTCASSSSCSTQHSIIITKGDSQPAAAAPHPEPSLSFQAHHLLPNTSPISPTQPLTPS
UniProt P25106: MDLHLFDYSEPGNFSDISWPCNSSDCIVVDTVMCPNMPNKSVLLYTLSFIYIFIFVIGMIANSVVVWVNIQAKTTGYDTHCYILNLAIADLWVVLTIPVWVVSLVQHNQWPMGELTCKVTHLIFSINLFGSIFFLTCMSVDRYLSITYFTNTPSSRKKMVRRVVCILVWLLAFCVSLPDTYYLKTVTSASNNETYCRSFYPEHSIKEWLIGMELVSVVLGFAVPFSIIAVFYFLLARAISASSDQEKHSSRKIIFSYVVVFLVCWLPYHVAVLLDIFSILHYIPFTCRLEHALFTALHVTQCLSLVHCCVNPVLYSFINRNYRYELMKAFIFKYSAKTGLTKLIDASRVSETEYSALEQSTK
UniProt P78556, residues 27-96: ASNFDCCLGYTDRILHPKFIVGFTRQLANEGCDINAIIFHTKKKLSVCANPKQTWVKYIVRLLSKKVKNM
UniProt O43927, residues 23-109: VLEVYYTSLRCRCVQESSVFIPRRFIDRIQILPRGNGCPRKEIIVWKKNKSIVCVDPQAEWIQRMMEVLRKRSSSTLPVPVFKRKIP
UniProt O89093, residues 28-97: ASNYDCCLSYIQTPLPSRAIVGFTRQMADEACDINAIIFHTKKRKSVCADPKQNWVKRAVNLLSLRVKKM
UniProt P49407: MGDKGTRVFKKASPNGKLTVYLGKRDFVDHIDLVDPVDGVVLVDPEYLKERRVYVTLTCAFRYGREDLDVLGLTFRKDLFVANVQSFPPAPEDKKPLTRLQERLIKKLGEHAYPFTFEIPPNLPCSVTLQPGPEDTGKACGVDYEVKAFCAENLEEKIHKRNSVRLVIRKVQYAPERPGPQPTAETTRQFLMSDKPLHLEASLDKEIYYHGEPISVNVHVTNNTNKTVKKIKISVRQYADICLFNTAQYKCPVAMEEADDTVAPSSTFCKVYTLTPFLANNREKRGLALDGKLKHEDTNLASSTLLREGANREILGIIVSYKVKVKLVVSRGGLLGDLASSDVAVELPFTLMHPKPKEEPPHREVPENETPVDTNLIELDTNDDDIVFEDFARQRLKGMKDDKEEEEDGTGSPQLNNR
UniProt P32121: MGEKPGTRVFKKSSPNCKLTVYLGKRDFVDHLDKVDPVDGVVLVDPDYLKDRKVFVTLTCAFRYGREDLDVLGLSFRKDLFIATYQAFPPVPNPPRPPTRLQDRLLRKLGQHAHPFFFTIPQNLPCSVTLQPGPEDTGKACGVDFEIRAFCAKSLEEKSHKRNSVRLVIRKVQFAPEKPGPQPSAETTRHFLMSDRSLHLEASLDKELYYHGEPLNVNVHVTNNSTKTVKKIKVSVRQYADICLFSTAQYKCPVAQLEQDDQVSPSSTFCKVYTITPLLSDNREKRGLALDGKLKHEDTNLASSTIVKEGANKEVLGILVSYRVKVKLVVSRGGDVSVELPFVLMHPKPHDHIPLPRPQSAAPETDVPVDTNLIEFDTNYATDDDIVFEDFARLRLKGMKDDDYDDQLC
UniProt Q99731, residues 22-98: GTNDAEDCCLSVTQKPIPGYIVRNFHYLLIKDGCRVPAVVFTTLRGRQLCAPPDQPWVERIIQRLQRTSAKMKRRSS
UniProt O00585, residues 24-134: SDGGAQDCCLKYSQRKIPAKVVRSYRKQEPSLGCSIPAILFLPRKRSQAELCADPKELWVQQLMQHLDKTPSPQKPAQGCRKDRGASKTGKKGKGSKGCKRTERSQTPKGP
UniProt P10148, residues 24-148: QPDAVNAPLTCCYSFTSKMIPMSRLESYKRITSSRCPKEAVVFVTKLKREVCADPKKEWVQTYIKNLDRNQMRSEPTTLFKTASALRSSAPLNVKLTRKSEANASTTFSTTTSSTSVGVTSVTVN

How the values were obtained:
[1] = molecular target: human GPR182 (hGPR182), expressed from hGPR182 T2A GFP in 300.19 pre-B cells (human) (UniProt O15218); assay: flow cytometry on cells; competition binding at 4°C: 300.19 cells expressing mGPR182 or hGPR182 with 3 nM fluorescent chemokine and increasing concentrations of its unlabeled counterpart, 45 min; only the binder purified
[2] = molecular target: human GPR182 (hGPR182), expressed from hGPR182 T2A GFP in 300.19 pre-B cells (human) (UniProt O15218); assay: flow cytometry on cells; competition scavenging at 37°C: 300.19 cells expressing mGPR182 or hGPR182 with 3 nM fluorescent chemokine and increasing concentrations of its unlabeled counterpart, 45 min; only the binder purified
[3] = molecular target: T1, murine GPR182 (mGPR182), expressed from mGPR182 T2A GFP in 300.19 pre-B cells (mouse) (UniProt P43142); assay: flow cytometry on cells; binding: 300.19 pre-B cells stably expressing the receptor (T2A GFP) incubated with 100 or 200 nM fluorescently labelled chemokine at 4°C for 45 min; MFI of parental cells subtracted; only the binder purified
T1 sequence: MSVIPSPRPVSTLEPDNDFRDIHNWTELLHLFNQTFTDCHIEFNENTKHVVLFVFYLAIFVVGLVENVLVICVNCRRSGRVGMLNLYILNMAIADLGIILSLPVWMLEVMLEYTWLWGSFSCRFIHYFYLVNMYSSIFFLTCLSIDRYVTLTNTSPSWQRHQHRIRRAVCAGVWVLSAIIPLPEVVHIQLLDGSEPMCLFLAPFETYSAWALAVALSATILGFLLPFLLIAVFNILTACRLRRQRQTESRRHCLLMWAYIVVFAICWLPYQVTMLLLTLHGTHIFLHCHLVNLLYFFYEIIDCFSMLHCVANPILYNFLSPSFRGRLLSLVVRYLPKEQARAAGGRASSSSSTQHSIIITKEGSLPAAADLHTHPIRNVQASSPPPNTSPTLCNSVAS

[4] = molecular target: human GPR182 (hGPR182), expressed from hGPR182 T2A GFP in 300.19 pre-B cells (human) (UniProt O15218); assay: flow cytometry on cells; uptake: 300.19 pre-B cells stably expressing the receptor (T2A GFP), together with parental cells, incubated with 20, 100 or 200 nM fluorescently labelled chemokine at 37°C for 45 min; MFI of parental cells subtracted; only the binder purified
[5] = molecular target: T1, murine GPR182 (mGPR182), expressed from mGPR182 T2A GFP in 300.19 pre-B cells (mouse); assay: as above
[6] = molecular target: T2, hACKR4 (T2A GFP) in 300.19 pre-B cells (human) (UniProt Q9NPB9); assay: as above
T2 sequence: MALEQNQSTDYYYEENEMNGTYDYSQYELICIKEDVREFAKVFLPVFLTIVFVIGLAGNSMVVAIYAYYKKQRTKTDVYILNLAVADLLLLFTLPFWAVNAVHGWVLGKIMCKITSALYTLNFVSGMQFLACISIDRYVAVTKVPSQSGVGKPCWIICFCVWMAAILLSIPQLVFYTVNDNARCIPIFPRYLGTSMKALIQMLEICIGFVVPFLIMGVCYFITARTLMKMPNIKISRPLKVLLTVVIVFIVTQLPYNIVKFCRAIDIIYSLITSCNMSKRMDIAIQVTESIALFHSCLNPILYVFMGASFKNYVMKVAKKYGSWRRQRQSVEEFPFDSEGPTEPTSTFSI

[7] = molecular target: T1, murine GPR182 (mGPR182), expressed from mGPR182 T2A GFP in 300.19 pre-B cells (mouse); assay: flow cytometry on cells; competition binding at 4°C: 300.19 cells expressing mGPR182 or hGPR182 with 3 nM fluorescent chemokine and increasing concentrations of its unlabeled counterpart, 45 min; only the binder purified
[8] = molecular target: T1, murine GPR182 (mGPR182), expressed from mGPR182 T2A GFP in 300.19 pre-B cells (mouse); assay: flow cytometry on cells; competition scavenging at 37°C: 300.19 cells expressing mGPR182 or hGPR182 with 3 nM fluorescent chemokine and increasing concentrations of its unlabeled counterpart, 45 min; only the binder purified
[9] = molecular target: T3, ACKR1 (T2A GFP) in 300.19 pre-B cells (UniProt Q16570); assay: flow cytometry on cells; binding: 300.19 pre-B cells stably expressing the receptor (T2A GFP) incubated with 100 or 200 nM fluorescently labelled chemokine at 4°C for 45 min; MFI of parental cells subtracted; only the binder purified
T3 sequence: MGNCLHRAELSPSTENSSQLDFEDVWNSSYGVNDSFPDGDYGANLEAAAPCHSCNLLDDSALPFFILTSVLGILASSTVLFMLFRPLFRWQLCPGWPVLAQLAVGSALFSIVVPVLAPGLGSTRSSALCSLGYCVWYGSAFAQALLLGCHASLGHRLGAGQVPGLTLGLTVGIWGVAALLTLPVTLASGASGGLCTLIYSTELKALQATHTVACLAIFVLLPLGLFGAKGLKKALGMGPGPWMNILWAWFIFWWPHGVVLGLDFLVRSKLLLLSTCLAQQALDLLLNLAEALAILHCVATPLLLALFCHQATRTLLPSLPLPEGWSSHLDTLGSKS

[10] = molecular target: T4, ACKR2 (T2A GFP) in 300.19 pre-B cells (UniProt O00590); assay: as above
T4 sequence: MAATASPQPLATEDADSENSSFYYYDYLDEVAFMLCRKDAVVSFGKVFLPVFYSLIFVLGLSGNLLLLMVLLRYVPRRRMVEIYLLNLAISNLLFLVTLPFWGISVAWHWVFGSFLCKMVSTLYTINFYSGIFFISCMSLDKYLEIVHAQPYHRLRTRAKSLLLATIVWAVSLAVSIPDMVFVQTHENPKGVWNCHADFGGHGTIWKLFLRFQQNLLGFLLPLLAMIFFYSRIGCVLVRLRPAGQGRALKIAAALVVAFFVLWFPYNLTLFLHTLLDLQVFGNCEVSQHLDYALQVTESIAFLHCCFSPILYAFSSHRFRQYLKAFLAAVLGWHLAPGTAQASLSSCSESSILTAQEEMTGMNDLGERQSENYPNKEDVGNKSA

[11] = molecular target: hACKR3 (T2A GFP) in 300.19 pre-B cells (human) (UniProt P25106); assay: as above
[12] = molecular target: human GPR182 (hGPR182), expressed from hGPR182 T2A GFP in 300.19 pre-B cells (human) (UniProt O15218); assay: as above
[13] = molecular target: T3, ACKR1 (T2A GFP) in 300.19 pre-B cells; assay: flow cytometry on cells; uptake: 300.19 pre-B cells stably expressing the receptor (T2A GFP), together with parental cells, incubated with 20, 100 or 200 nM fluorescently labelled chemokine at 37°C for 45 min; MFI of parental cells subtracted; only the binder purified
[14] = molecular target: T4, ACKR2 (T2A GFP) in 300.19 pre-B cells; assay: as above
[15] = molecular target: hACKR3 (T2A GFP) in 300.19 pre-B cells (human) (UniProt P25106); assay: as above
[16] = molecular target: T5, mGPR182 T2A GFP in HEK293 cells (mouse) (UniProt P43142); assay: uptake of fluorescent chemokine by confocal microscopy; HEK293 cells expressing mGPR182 or hGPR182 (T2A GFP) incubated with 100-200 nM fluorescent chemokine at 37°C, fixed and imaged (3D reconstruction), or imaged live; only the binder purified
T5 sequence: T1 sequence

hCCR6-nLuc11 (human) = molecular target: T6, hCCR6-nLuc11 (human) (UniProt P51684); assay: split reporter; HeLa cells co-transfected (1:1) with receptor-nLuc11 and β-arrestin with inserted nLuc156, coelenterazine H, 37°C; basal signal and after 300 nM chemokine
T6 sequence: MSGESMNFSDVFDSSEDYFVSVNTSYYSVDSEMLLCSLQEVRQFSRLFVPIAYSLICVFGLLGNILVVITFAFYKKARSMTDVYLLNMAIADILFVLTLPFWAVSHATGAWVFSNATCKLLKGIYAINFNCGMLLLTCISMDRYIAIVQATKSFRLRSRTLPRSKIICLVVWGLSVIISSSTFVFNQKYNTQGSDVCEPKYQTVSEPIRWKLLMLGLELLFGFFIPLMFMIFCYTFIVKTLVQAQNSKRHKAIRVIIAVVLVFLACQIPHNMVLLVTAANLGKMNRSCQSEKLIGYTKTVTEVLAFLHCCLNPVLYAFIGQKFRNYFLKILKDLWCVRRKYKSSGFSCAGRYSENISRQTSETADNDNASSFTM

hGPR182-nLuc11 (human) = hGPR182-nLuc11 (human) (UniProt O15218); assay: as above
mGPR182-nLuc11 (mouse) = molecular target: T7, mGPR182-nLuc11 (mouse) (UniProt P43142); assay: as above
T7 sequence: T1 sequence

Substance: hCCL20, fluorescently labelled (from UniProt P78556 27-96) (ligand)
binding [3]: binds
binding [4]: binds
binding [5]: binds

Substance: hCXCL13, fluorescently labelled (from UniProt O43927 23-109) (ligand)
binding [1]: binds
binding [7]: binds
binding [2]: binds
binding [8]: binds
binding [9]: no binding (tested: 100 nM)
binding [10]: no binding (tested: 100 nM)
binding [11]: no binding (tested: 100 nM)
binding [12]: binds
binding [3]: binds
binding [13]: no binding (tested: 100 nM)
binding [14]: no binding (tested: 100 nM)
binding [15]: no binding (tested: 100 nM)
binding [4]: binds
binding [5]: binds

Substance: mCCL20, fluorescently labelled (from UniProt O89093 28-97) (ligand)
binding [7]: binds
binding [3]: binds
binding [16]: binds
binding [4]: no binding (tested: 200 nM)
binding [5]: binds

Substance: β-arrestin1A-nLuc156 (from UniProt P49407 1-418)
binding (hCCR6-nLuc11 (human)): binds
binding (hGPR182-nLuc11 (human)): binds
binding (mGPR182-nLuc11 (mouse)): binds

Substance: β-arrestin2i1-nLuc156 (from UniProt P32121 1-409)
binding (hCCR6-nLuc11 (human)): binds
binding (mGPR182-nLuc11 (mouse)): binds

Other lines, results leading:

binding [1]: binds
binding [2]: binds
binding [3]: binds
binding [4]: binds
binding [5]: binds
Substance: hCCL19, fluorescently labelled (from UniProt Q99731 22-98) (ligand)

binding [6]: binds
binding [4]: binds weakly
binding [5]: binds weakly
Substance: hCCL21, fluorescently labelled (from UniProt O00585 24-134) (ligand)

binding [4]: binds weakly
binding [5]: binds
Substance: mCCL2, fluorescently labelled (from UniProt P10148 24-148) (ligand)
